For the assay, the system named is 282377-053-R-J1-PDC complex spheroid viability. Briefly: Anticancer human tumor 282377-053-R-J1-PDC patient-derived colon adenocarcinoma cell line growth inhibition [POLQ]. The note with it: for IC50: compound alone; for viability, T/C: stronger effect = lower value. As for the experimental part:
Multicellular complex tumor spheroid response to Polymerase (POL) inhibitors (novobiocin, ART-558, RP6685) in combination with a variety of drugs and investigational agents in selected tumor cell lines
The POL inhibitors (novobiocin, ART-558, and RP6685) were evaluated both individually and in combination with standard of care and investigational anticancer small molecules within a complex spheroid model of solid tumors. . Complex spheroids include a stromal component modeled by human endothelial cells (HUVEC) and fibroblasts modeled by human mesenchymal stem cells (MSCs). The concentration ranges selected for each drug and investigational agent were based upon clinically achievable concentrations if the clinical Cmax of the agent was known.
Compounds. The drugs and investigational agents: novobiocin (NSC847541), ART-558 (NSC835418), RP-6685 (NSC848927), peposertib (NSC802822), ceralasertib (NSC780249), elimusertib (NSC800525), camonsertib (NSC841442), AZD-1390 (NSC803789), olaparib (NSC753686), talazoparib (NSC767125), rucaparib (NSC756644), sotorasib (NSC818433), MRTX-1133 (NSC836407), SN-38 (NSC673596), topotecan (NSC609699), epotoside (NSC141540), doxorubicin (NSC123127), gemcitabine (NSC613327), 5-fluorouracil (NSC19893), paclitaxel (NSC125973), vemurafenib (NSC761431), MSA-2 (NSC828583), SN-011 (NSC837082), adavosertib (NSC754352), prexasertib (NSC758257), carboplatin (NSC241240) and oxaliplatin (NSC266046), were obtained from the National Cancer Institute (NCI) Developmental Therapeutics Program Chemical Repository (21). The FDA-approved anticancer drug set is available from the Developmental Therapeutics Program at https://dtp.cancer.gov/organization/dscb/obtaining/. […] The stock solutions were prepared in dimethyl sulfoxide (DMSO, Sigma-Aldrich, St. Louis, MO, cat. D2650), except for the platinum compounds which were prepared in saline (Quality Biological, Gaithersburg, MD, cat. 114-055-101), at 800-fold the tested concentration and stored at -70 degrees C prior to their use. All drugs and investigational agents were tested over a range starting from a high concentration at or near the clinical Cmax and decreasing in half-log increments. If the clinical Cmax for an agent had not been determined, the highest concentration tested was 10 microM, except for SN-38, which was tested at a high concentration of 1 microM.
Cell Culture. All cells were maintained in an incubator at 37 degrees C and 5% CO2 with 95% humidity. The PDC lines were cultured according to standard operating procedures established by the NCI PDMR (https://pdmr.cancer.gov). Table 3 of the manuscript, lists the cell lines along with the number of the three cell types plated to form the mct-spheroids and media for tumor cell growth. After thawing, all PDC lines, except 997537-175-T-J1-PDC and 415267-285-R-J2-PDC, were cultured in Matrigel-coated flasks prepared with a working solution of 1X Ham's F-12 nutrient mix, without supplementation (Thermo Fisher Scientific, cat. 11765054), 100 U/mL penicillin-streptomycin (Thermo Fisher Scientific, cat. 15140122), and 2.5% Matrigel (Corning Inc., Corning, NY, cat. 354248) for the first three passages. The two PDC lines 997537-175-T-J1-PDC and 415267-285-R-J2-PDC were cultured on uncoated flasks. The 857933-349-R-J2-PDC line was cultured in 6C/Colon 1B media containing advanced DMEM/F-12 (Thermo Fisher Scientific, cat. 12634028), 10 mM HEPES (Thermo Fisher Scientific, cat. 15630080), 1X GlutaMAX supplement (Thermo Fisher Scientific, cat. 35050061), 0.1 mg/mL primocin (InvivoGen, San Diego, CA, cat. ant-pm-2), 10% defined fetal bovine serum, heat inactivated (HyClone Laboratories Inc., Logan, UT, cat. SH30070.03HI), 50% L-WRN conditioned media (ATCC, cat. CRL-3276), 1.25 mM N-Acetyl-L-cysteine (Sigma-Aldrich, cat. A9165), 10 mM nicotinamide (Sigma-Aldrich, cat. N0636), 1X B-27 supplement (Thermo Fisher Scientific, cat. 17504044), 1X N-2 supplement (Thermo Fisher Scientific, cat. […]

The source holds more than one record for some entries. This list holds those alone. There may be further records. Results that share an entry repeat one measurement across runs, samples, wells, individuals or studies. Marks such as (2×) give the number of equal values in this list. A date in brackets names the month of the test. Some results are limits rather than exact numbers.
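Note: spheroids exposed to compounds for seven days.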

What is called IC50 is the concentration that gives 50% inhibition. For `Nc1ccn(C2OC(CO)C(O)C2(F)F)c(=O)n1` (stereo unspecified), the IC50 was 121 nM, 83.8 nM [2023-10] and > 10 µM [2023-11].
Same read-out and setting: with `CCc1c2c(nc3ccc(O)cc13)-c1cc3c(c(=O)n1C2)COC(=O)[C@]3(O)CC` the figure was 119 nM, 59.6 nM [2023-10] and > 1 µM [2023-11].
What is called viability, T/C is the result in the treated group divided by that in the control group, in per cent. As to `Nc1ccc(C#CCN(C(=O)Cc2ncc(C(F)(F)F)cc2C(F)(F)F)c2ccc(F)cc2)nn1`, the viability, T/C (compound alone 0.1 µM) was 117, 104, 102, 101, 85.7, 85.5, 97.5, 94.1, 97.1 (2×), 95.5, 83.9, 83.7% and the viability, T/C (compound alone 0.316 µM) was 97.5, 106 (2×), 97.7, 98.6, 86.7, 98.3, 105, 110, 107 (2×), 91.2, 79.9%.
Take `CC(=O)O[C@H]1C(=O)[C@@]2(C)[C@H]([C@H](OC(=O)c3ccccc3)[C@]3(O)C[C@H](OC(=O)[C@H](O)[C@@H](NC(=O)c4ccccc4)c4ccccc4)C(C)=C1C3(C)C)[C@]1(OC(C)=O)CO[C@@H]1C[C@@H]2O`: the IC50 is < 9.49 nM [2023-10] and 25.4 nM, > 3 µM [2023-11].
As for `Cc1cccc(N(C)C(=O)C2C(O)CCN2c2nc(C)cc(C(F)(F)F)c2C#N)c1` (stereo unspecified), the viability, T/C (compound alone 0.0316 µM) is 80.6, 117, 76.2, 79.7, 111, 84.2, 86.6, 91.3% [2023-10] and 96.4, 103, 104, 92.2, 98.8% [2023-11]; the viability, T/C (compound alone 0.316 µM) was 95.5, 113 (2×), 111, 97.2, 85.4, 95.4, 101% [2023-10] and 99.7, 108 (2×), 98.4, 93% [2023-11]; the viability, T/C (compound alone 1 µM) was 90.7, 121, 108 (2×), 110, 96, 96.9, 97.1% [2023-10] and 114, 101, 95.6, 103, 102% [2023-11]; the viability, T/C (compound alone 3.16 µM) is 93.1, 118, 85.6, 106, 83.6, 99.2, 93.4, 128% [2023-10] and 97.6, 96.2, 99.9, 101, 109% [2023-11]; the viability, T/C (compound alone 10 µM) is 112, 93.9, 94.7, 92.5, 85.9, 98.9, 111, 95.6% [2023-10] and 103, 102, 97.8, 94.1, 107% [2023-11].
With `COC1C(OC(N)=O)C(O)C(Oc2ccc3c(O)c(NC(=O)c4ccc(O)c(CC=C(C)C)c4)c(=O)oc3c2C)OC1(C)C` (stereo unspecified), under “compound alone 0.1 µM”, the viability, T/C is 92.8, 108 (2×), 96.1, 120, 104, 85.6, 123, 100, 102 (3×), 105%.

The values are drawn from PubChem BioAssay AID1963852 (Molecular Pharmacology Branch, DTP, NCI, 2024).
